Assay results published in PMC4336329 (PLoS ONE, 2015).
About 14,000 (4.5%) of roughly 310,000 compounds showed an effect of 50% or more. Effects have a minus sign here. Some of the results follow.

Biological target: human ether-à-go-go-related gene (hERG) potassium channel (human, UniProt Q12809)
Assay: primary screen, population patch clamp on CHO cells stably expressing hERG
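Also: peak tail current of the secondary pulse compared with the same well before compound.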

human ether-à-go-go-related gene (hERG) potassium channel, sequence (Q12809 whole entry, looked up): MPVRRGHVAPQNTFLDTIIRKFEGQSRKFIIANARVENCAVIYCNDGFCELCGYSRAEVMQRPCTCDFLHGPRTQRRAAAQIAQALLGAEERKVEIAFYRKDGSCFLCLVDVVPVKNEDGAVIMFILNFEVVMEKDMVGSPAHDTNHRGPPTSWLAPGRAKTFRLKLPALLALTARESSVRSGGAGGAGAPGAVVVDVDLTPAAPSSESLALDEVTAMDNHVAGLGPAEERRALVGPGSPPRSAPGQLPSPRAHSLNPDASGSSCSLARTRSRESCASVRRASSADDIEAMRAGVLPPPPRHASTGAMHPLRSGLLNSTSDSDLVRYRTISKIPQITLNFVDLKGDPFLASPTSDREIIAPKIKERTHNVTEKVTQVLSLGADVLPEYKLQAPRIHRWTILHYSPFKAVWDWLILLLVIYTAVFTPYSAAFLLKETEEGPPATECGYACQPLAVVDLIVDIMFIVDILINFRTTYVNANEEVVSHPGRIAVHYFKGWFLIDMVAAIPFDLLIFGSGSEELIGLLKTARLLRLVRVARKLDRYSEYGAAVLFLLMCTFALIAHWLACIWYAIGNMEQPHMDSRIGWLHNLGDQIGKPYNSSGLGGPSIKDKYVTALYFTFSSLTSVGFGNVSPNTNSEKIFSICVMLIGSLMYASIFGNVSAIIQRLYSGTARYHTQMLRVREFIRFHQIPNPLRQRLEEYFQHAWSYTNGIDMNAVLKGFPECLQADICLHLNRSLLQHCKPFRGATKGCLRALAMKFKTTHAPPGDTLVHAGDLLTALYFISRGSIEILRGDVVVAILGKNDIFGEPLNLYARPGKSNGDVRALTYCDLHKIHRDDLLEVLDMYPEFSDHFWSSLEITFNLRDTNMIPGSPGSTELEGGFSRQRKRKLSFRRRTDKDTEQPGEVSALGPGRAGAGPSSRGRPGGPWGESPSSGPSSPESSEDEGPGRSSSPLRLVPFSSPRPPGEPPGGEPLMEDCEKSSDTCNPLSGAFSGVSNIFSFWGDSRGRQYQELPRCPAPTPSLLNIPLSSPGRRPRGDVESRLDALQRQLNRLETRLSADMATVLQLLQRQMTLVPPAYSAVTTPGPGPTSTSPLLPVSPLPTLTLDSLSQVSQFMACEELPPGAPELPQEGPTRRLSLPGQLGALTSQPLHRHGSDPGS

Row | Compound | hERG current change (%, negative = inhibition) at 10uM [%]
1 | Cc1ccc(N2CCN(C(=O)N3CCCC3)CC2)cc1Cl | 12.9
2 | CCc1ccc(NC(=O)C(C)Sc2nc(-c3ccco3)c(C#N)c(=O)[nH]2)cc1 (centres unmarked) | 32.3
3 | COCCOC(=O)c1c(NC(=O)CN(C)c2ccccc2)sc(C(N)=O)c1C | -3.23
4 | COc1ccc(NC(=O)CCC(=O)Nc2nnc(CC(C)C)s2)cc1Cl | 20
5 | COc1ccc(NC(=O)C2CCN(S(=O)(=O)c3ccc(OC)c(OC)c3)CC2)cc1 | 5.79
6 | Cc1cc(=O)oc2c3c(cc(OCC(=O)NC4CC4)c12)OC(C)(C)CC3 | 9.68
7 | COc1cccc(C(=O)C2CCCN(Cc3cccc(-n4cccn4)c3)C2)c1 (centres unmarked) | -64.5
8 | O=[N+]([O-])c1cccc(CSc2nnc(Cc3ccccc3)n2-c2ccc(F)cc2)c1 | -23.7
9 | CCc1nc2nc(C)c(NS(=O)(=O)c3cccs3)c(=O)n2[nH]1 | 15.1
10 | COc1ccc(NC(=O)Cn2c([N+](=O)[O-])cnc2C)cc1Cl | 11.1
11 | CC(C)[C@H](NC(=O)C1CCN(S(=O)(=O)c2ccc(F)cc2)CC1)C(=O)N1CCCC1 | 17.3
12 | O=C(Nc1ncccn1)C1=C(O)c2ccccc2S(=O)(=O)N1Cc1ccccc1 | 22.8
13 | Cc1cc(C)c(S(=O)(=O)Nc2cccnc2)c(C)c1 | 6.23
14 | CCn1cc(C(=O)O)c(=O)c2cc(F)c(N3CCN(C(=S)NC(=O)c4ccccc4Br)CC3)cc21 | 17.6
15 | Cc1ccc(C(=O)CCC(=O)OCC(=O)Nc2c(C)nn(-c3ccccc3)c2C)cc1 | 5.58
16 | Cc1cc(Cl)c(S(=O)(=O)N2CCCCCC2)cc1OCC(=O)NC1CCCCC1 | -18.6
17 | CCCc1nnc(NC(=O)CNc2ccc(F)cc2)s1 | -0.23
18 | O=S(=O)(c1ccc(Cl)cc1)n1c(Cc2ccccc2)nc2ccccc21 | 0.437
19 | CC(Oc1ccc(Cl)cc1Cl)C(=O)Nc1ccc2oc(-c3ccncc3)nc2c1 (centres unmarked) | 0.0653
20 | Cc1ccc2nc(-c3ccc(O)cc3)c(Nc3ccc4c(c3)OCCO4)n2c1 | 0.511
21 | Cc1ccc(NC(=O)c2cnn(-c3ccccc3)c2C)cc1C | -2.19
22 | CC(=O)Nc1ccc(C(=O)N/C(=C\c2ccccc2)C(=O)Nc2cccc(C(=O)O)c2)cc1 | 3.67
23 | CC(C)CN(C(=O)C(C)N1C(=O)c2ccccc2C1=O)c1c(N)n(Cc2ccccc2)c(=O)[nH]c1=O (centres unmarked) | 1.96
24 | CC(=O)Nc1ccc(NC(=O)CCSCCc2ccccn2)cc1 | 23.5
25 | O=C(COC(=O)CNC(=O)c1ccccc1Cl)Nc1cc(C(F)(F)F)ccc1Cl | -17.8
26 | CN(Cc1cccnc1)Cc1c(C(=O)N2CCc3ccccc3C2)nc2ccc(Cl)cn12 | -20.1
27 | CCc1ccc(N2C(=O)c3sc4nnc(C)c(=O)n4c3C2=O)cc1 | -27.4

Row | Compound | hERG current change (%, negative = inhibition) at 10uM [%]
28 | Cc1cccc(CC2S/C(=N/N=C/c3ccco3)N(c3ccccc3)C2=O)c1 (centres unmarked) | -3.69
29 | COc1cc(OC)c(C(=O)Nc2ccc(S(=O)(=O)N3CCCCC3)cc2)cc1OC | 0.0248
30 | Cc1cc(Nc2ccccc2Br)n2nc(C)nc2n1 | 10.3
31 | COc1ccc(N2CCN(C(=S)Nc3cccc(OC)c3)CC2)cc1 | 0.525
32 | CCCN(CC(=O)Nc1ccc(F)c(F)c1F)C(=O)c1ccc2c(=O)n3c(nc2c1)CCC3 | -5.21
33 | O=C(Nc1nc2ccc(S(=O)(=O)N3CCCC3)cc2s1)C1CCCCC1 | 4.81
34 | CC(C)OP(=O)(CCP(=O)(OC(C)C)OC(C)C)OC(C)C | 17.9
35 | CCOC(=O)c1cc(-c2ccccc2)sc1NC(=O)CN1C(=O)NC(CC)(c2ccccc2)C1=O (centres unmarked) | 0.134
36 | CN1/C(=N\O)c2cccc3cccc1c23 | 0.693
37 | Cc1c(Cl)cccc1NC(=S)/C(=C(\[O-])c1ccc(Cl)s1)[n+]1ccccc1 | 3.76
38 | CC(O)CNCCOc1cccc(Oc2ccccc2)c1.O=C(O)C(=O)O (centres unmarked) | -18.1
39 | Cc1cc(Oc2ccccc2)nc(-c2ccccc2)n1 | -4.18
40 | Cc1[nH]ccc(=O)c1OC1OC(CO)C(O)C(O)C1O (centres unmarked) | 16.6
41 | CCCCCC(O)(c1ccc(OC)cc1)C(CN1CCOCC1)c1ccccc1.Cl (centres unmarked) | 7.74
42 | CCc1ccc(NC(=O)CN(C)S(=O)(=O)c2ccc3[nH]c(=O)oc3c2)cc1 | 8.73
43 | O=C(O)C(=O)O.O=C(c1ccc(F)cc1)N1CCN(C2CCC(c3ccccc3)CC2)CC1 (centres unmarked) | -76
44 | CCCNC(=O)c1c(NC(=O)C2COc3ccccc3O2)sc2c1CCCC2 (centres unmarked) | 1.77
45 | COc1ccccc1CNC(=O)c1cc(S(=O)(=O)N2CCCCC2)c[nH]1 | -6.24
46 | CCN(CC(=O)Nc1c(F)cccc1F)C(=O)CCCc1nc2ccccc2c(=O)[nH]1 | 20.1
47 | Cc1cc(C)n(-c2cc(N3CCN(S(=O)(=O)c4ccc(Cl)cc4)CC3)ccc2[N+](=O)[O-])n1 | -32.8
48 | O=S1(=O)CCC(NS(=O)(=O)c2ccc3ccccc3c2)C1 (centres unmarked) | 11.1
49 | CCN(CC(=O)Nc1c(F)cccc1F)C(=O)CNC(=O)COc1ccccc1 | -2.62
50 | CC(=O)c1ccc(OCc2cc(C(=O)NCC3CCCCO3)no2)cc1 (centres unmarked) | 8.13
51 | CCn1cc(C(=O)NCCN(C)CCc2ccccc2)c(=O)c2cc(S(=O)(=O)N(C)C)ccc21 | -43.5
52 | CC(CCl)OC(C)CCl (centres unmarked) | 14.4
53 | CCn1cc(CN2CCC(n3nccc3NC(=O)C3CCCC3)CC2)cn1 | -6.15
